From patent publication US20250122271A1, “ANTI-DKK1 ANTIBODY, PHARMACEUTICAL COMPOSITION THEREOF, AND USE THEREOF” (SHANGHAI JUNSHI BIOSCIENCES CO., LTD., priority 2022, published 2025)
Substitutions are numbered along the chain they refer to.

T1: human DKK1 (Homo sapiens, UniProt O94907)
T1 construct: purchased Sino Biological 10170-H08H
T1 sequence (O94907 32-266): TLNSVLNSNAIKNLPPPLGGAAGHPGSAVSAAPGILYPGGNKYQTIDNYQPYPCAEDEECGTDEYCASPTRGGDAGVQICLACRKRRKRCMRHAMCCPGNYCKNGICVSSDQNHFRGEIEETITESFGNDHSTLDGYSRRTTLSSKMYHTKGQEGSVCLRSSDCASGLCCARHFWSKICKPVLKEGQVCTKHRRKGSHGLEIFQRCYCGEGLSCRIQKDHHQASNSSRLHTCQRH

B1: hu3: humanized antibody, VH/VL SEQ ID NO: 49/56, HC/LC SEQ ID NO: 79/86 (antibody)
heavy: EVQLLQSAAEVKRPGESLRISCKTSGYTFTEYTMHWVRQMPGKELEWMGVIDPSNGDTSYNQKFKGHVTISADKSSSTAYLQWSSLKASDAAMYYCSSTTGPWFASWGQGTLVTVSSASTKGPSVFPLAPCSRSTSESTAALGCLVKDYFPEPVTVSWNSGALTSGVHTFPAVLQSSGLYSLSSVVTVPSSSLGTKTYTCNVDHKPSNTKVDKRV[letters of human IgG4 Fc with S228P (EU numbers) omitted]
light: EIVMTQSPPTLSLSPGERVTLSCRASQDISNYLNWYQQKPGQAPRLLIYYKSRLHSGIPARFSGSGSGTDFTLTISSLQPEDFAVYYCQQVHTLPPTFGQGTKLEIKRTVAAPSVFIFPPSDEQLKSGTASVVCLLNNFYPREAKVQWKVDNALQSGNSQESVTEQDSKDSTYSLSSTLTLSKADYEKHKVYACEVTHQGLSSPVTKSFNRGEC
B2: hu64: humanized antibody, VH/VL SEQ ID NO: 72/76, HC/LC SEQ ID NO: 102/106 (antibody)
heavy: QVQLVQSGAEVKKPGSSVKVSCKASGYTFTSYNMLWVRQAPGQGLEWMGVIFPGNGDTSYNPKFKGRVTLTADKSSSTAYMELSSLRSEDTAVYYCARDGYPSMDYWGQGTLVTVSSASTKGPSVFPLAPCSRSTSESTAALGCLVKDYFPEPVTVSWNSGALTSGVHTFPAVLQSSGLYSLSSVVTVPSSSLGTKTYTCNVDHKPSNTKVDKRV[letters of human IgG4 Fc with S228P (EU numbers) omitted]
light: DTQLTQSPSFLSASVGDRVTITCITSTDIDDDMNWYQQKPGKAPKLLISEGNSLRPGVPSRFSSSGSGTEFTLTISSLQPEDFATYYCLQFNNMPLTFGQGTKLEIKRTVAAPSVFIFPPSDEQLKSGTASVVCLLNNFYPREAKVQWKVDNALQSGNSQESVTEQDSKDSTYSLSSTLTLSKADYEKHKVYACEVTHQGLSSPVTKSFNRGEC
B3: hu52: humanized antibody, VH/VL SEQ ID NO: 69/76, HC/LC SEQ ID NO: 99/106 (antibody)
heavy: B2 heavy with S16A, G44R
light: B2 light
B4: hu50: humanized antibody, VH/VL SEQ ID NO: 69/74, HC/LC SEQ ID NO: 99/104 (antibody)
heavy: B2 heavy with S16A, G44R
light: B2 light with T2I, L4M, F10S, L11V, S64G, E70D

Assays:
human DKK1 = target: T1, human DKK1; assay: Luciferase reporter gene assay in 293 TOP cells with Wnt3a and human DKK1 (recovery of Wnt signaling); format: cell-based; conditions: humanized antibodies
Description: (§1) The cellular biological activity of the DKK1 antibodies was tested using target cells 293 TOP overexpressing LRP5/6 and comprising the luciferase reporter system and recombinant Wnt3a (R&D systems, cat #5036-WN), as well as human DKK1 (Sino Biological, cat #10170-H08H) protein. The target cells 293 TOP were placed into a 96-well flat-bottomed white plate (corning, cat #3917) at 50,000 cells per well for incubation overnight. The supernatant was then discarded, and the gradiently diluted antibodies to be tested were each added for pre-incubation at 37° C. for 0.5 h. After the pre-incubation was completed, the diluted Wnt3a (R&D systems, cat #5036-WN) and human DKK1 protein, at working concentrations of 0.05 μg/mL and 0.1 μg/mL, respectively, were added into the mixture containing the cells and antibody for co-incubation at 37° C. for 6-8 h. Finally, the luciferase substrate One-Lite (Vazyme, cat #DD1203-03-AB) was added and the chemiluminescence values of the hybridoma antibodies were measured.
The cellular biological activity of the hDKK1 chimeric antibodies was tested using target cells 293 TOP overexpressing LRP5/6 and comprising the luciferase reporter system and recombinant Wnt3a (R&D systems, cat #5036-WN), as well as human DKK1 (Sino Biological, cat #10170-H08H) protein.
as §1, with “The” for “The cellular biological activity of the DKK1 antibodies was tested using target cells 293 TOP overexpressing LRP5/6 and comprising the luciferase reporter system and recombinant Wnt3a (R&D systems, cat #5036-WN), as well as human DKK1 (Sino Biological, cat #10170-H08H) protein. The”, “chimeric” for “hybridoma”, “measured (FIGS. 5A-5C).” for “measured.”
as §1, with “After the pre-incubation was completed, the diluted Wnt3a (R&D systems, cat #5036-WN) and human DKK1 protein, at working concentrations of 0.05 μg/mL and 0.1 μg/mL, respectively, were added into the mixture containing the cells and antibody for co-incubation at 37° C. for 6-8 h.” left out, “humanized” for “hybridoma”, “measured. […]” for “measured.”

PC-3 cells = assay: PC-3 subcutaneous transplantation tumor model in CB17/SCID male mice; format: in vivo
Description: The experimental animals were CB17/SCID male mice, and PC-3 cells (10×10^6) were subcutaneously inoculated in the right back of the mice to establish a subcutaneous transplantation tumor model. […] The groups each had 8 animals, and the animals in all the groups were subjected to intraperitoneal injection. […] The efficacy was evaluated based on tumor growth inhibition (TGI) (FIG. 10).

A549 cells = assay: A549 subcutaneous transplantation tumor model in CB17/SCID female mice; format: in vivo
Description: The experimental animals were CB17/SCID female mice, and A549 cells (5× 10^6) were subcutaneously inoculated into the mice to establish a subcutaneous transplantation tumor model. […] The groups each had 6 animals, and the animals in all the groups were subjected to intraperitoneal injection. […] The efficacy was evaluated based on tumor growth inhibition (TGI) (FIG. 9).

Molecule | activity in the screening at cellular level (human DKK1) | tumor growth inhibition (TGI) (PC-3 cells; day 21, hu3 10 mg/kg intraperitoneal twice per week for 3 weeks) [%] | tumor growth inhibition (TGI) (PC-3 cells; day 21, hu3 20 mg/kg intraperitoneal twice per week for 3 weeks) [%] | tumor growth inhibition (TGI) (PC-3 cells; day 21 after tumor inoculation, hu3 5 mg/kg intraperitoneal twice per week for 3 weeks) [%] | tumor inhibition (in words) (PC-3 cells; doses of 5 mg/kg, 10 mg/kg and 20 mg/kg) | tumor inhibition (in words) (A549 cells; 5 mg/kg, p=0.013) | tumor growth inhibition (TGI) (A549 cells; day 35 after tumor inoculation, 5 mg/kg intraperitoneal once per week for 4 weeks) [%]
B1 | superior activity | 48.8 | 56.4 | 30.7 | significant tumor inhibition | significant tumor inhibition | 35.29
B2 | superior activity |  |  |  |  |  | 
B3 | superior activity |  |  |  |  |  | 
B4 | superior activity |  |  |  |  |  | 
